From PubChem BioAssay AID504339 (National Center for Advancing Translational Sciences (NCATS), 2011)
The campaign covered roughly 390,000 compounds. About 17,000 (4.4%) were called active. This list was built around the results that the source calls inconclusive (neither active nor inactive); the mix of calls is not that of the screen. Calls follow the shape of the dose curve; as a rule, active = well fitted inhibition curve with a large enough effect; inconclusive = small, poorly fitted or top-dose-only effect; inactive = no such curve, though single readings can be large or run the other way. Potencies of inconclusive entries are doubtful fits and often do not repeat.

The compounds below were run against Lysine-specific demethylase 4A (Homo sapiens) (UniProt O75164) (assay: qHTS Assay for Inhibitors of JMJD2A-Tudor Domain). Settings: AlphaScreen JMJD2A-Tudor / H3K4me3 peptide binding; activity change, negative = inhibition: at 114 µM (top of the series).
% is scaled to controls: 0 for no effect and ±100 for the full control effect; potency is read from the fitted curve at half-maximal effect; tags tell the direction and shape of the fitted curve.
Also: nearly all actives have a fitted effect of over 50% in size.

Chain of UniProt O75164 (O75164 whole entry, looked up, the tested form may be a part): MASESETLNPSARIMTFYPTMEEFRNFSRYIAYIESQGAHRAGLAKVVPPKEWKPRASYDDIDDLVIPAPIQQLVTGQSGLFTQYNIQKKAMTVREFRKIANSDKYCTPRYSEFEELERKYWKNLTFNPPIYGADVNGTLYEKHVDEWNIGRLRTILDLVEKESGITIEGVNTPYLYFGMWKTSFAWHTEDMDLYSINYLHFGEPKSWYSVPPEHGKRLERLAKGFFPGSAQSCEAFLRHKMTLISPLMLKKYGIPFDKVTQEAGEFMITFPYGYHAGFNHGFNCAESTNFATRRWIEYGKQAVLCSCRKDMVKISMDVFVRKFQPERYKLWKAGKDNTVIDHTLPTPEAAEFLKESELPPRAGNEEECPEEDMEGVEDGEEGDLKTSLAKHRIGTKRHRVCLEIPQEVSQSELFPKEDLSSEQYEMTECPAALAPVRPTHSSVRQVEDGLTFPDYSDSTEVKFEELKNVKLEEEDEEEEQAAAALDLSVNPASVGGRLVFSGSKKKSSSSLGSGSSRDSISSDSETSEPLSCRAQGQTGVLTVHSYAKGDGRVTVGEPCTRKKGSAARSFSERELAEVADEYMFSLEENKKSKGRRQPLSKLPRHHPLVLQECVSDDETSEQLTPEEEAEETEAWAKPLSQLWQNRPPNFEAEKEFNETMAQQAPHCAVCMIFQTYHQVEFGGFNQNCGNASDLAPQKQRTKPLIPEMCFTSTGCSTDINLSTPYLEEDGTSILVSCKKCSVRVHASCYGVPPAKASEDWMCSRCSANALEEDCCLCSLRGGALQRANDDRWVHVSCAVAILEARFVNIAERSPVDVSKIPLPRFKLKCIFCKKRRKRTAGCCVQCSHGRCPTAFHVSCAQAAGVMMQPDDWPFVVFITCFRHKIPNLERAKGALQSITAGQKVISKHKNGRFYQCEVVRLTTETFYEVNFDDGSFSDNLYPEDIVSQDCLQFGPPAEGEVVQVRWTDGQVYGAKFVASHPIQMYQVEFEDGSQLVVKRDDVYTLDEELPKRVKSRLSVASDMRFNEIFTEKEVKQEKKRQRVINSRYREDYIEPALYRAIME

Potency, inactive:
O=S(=O)(c1ccc2c(c1)OCCO2)N1CCN(c2nc(-c3cccs3)nc3ccccc23)CC1

Potency, active:
O=C(COc1ccc([N+](=O)[O-])cc1)Nc1nc(-c2ccccn2)cs1 28.2 µM, Cc1ccc(/C=N/n2c(COc3ccccc3)n[nH]c2=S)o1 56.2 µM, Cn1/c(=N/N=C/c2ccccn2)sc2ccccc21 89.1 µM, CC(C)(C)c1ccc(OCCCNC2CCCC2)cc1 20 µM, Cc1c(C(=O)NNS(=O)(=O)c2ccccc2)sc(=S)n1C 8.91 µM, Cn1c(NC(=O)c2ccccc2)c(-c2ccccn2)c(=O)c2ccccc21 31.6 µM, O=C(CSc1nnc(C2COc3ccccc3O2)o1)Nc1nccs1 (stereo not drawn) 79.4 µM, Cc1ccn(Cc2n[nH]c(=S)n2Cc2ccccc2)n1 8.91 µM, Fc1cccc(CN2CCCCCCC2)c1 2 µM

Potency, inconclusive:
COc1ccc(NCc2cc3cc(OC)ccc3[nH]c2=O)cc1 50.1 µM [inhibitor, partial curve], O=C(C1CCCN(S(=O)(=O)c2ccccc2[N+](=O)[O-])C1)N1CCN(c2ccccc2)CC1 (stereo not drawn) 22.4 µM [inhibitor, full curve], CCN(CC)c1ccc(C(=O)N2CCc3c([nH]c4ccccc34)C2c2ccc(F)cc2)cc1 (stereo not drawn) 12.6 µM [inhibitor, full curve], Cc1ccc2ccc3cccnc3c2n1 100 µM [inhibitor, single point], CN(C)c1ccc(C=NNC(=S)Nc2ccc(F)cc2)cc1 44.7 µM [inhibitor, partial curve], Cc1ccccc1-c1n[nH]c(=S)o1 56.2 µM [inhibitor, partial curve, poor fit], Cc1nnsc1C(=O)NNS(=O)(=O)c1ccccc1 89.1 µM [inhibitor, single point], O=S(=O)(c1ccc2nc(-c3ccccc3)[nH]c2c1)N1CCN(c2ccc(Cl)cc2)CC1 100 µM [inhibitor, single point], CC(=O)N1CCC2(CC1)C(C#N)=C(N)Oc1n[nH]c(CSc3ccc(C)cc3)c12 89.1 µM [inhibitor, partial curve], CC(OC(=O)c1ccc(O)cc1)C(=O)Nc1nc(-c2ccccc2)cs1 (stereo not drawn) 35.5 µM [inhibitor, partial curve], O=S(=O)(c1cccc(-c2n[nH]c(=S)n2-c2cccc(C(F)(F)F)c2)c1)N1CCOCC1 89.1 µM [inhibitor, single point], COc1ccc(C(=O)Nc2nnc(-c3ccccc3)o2)cc1OC 89.1 µM [inhibitor, single point], CCC(C)Sc1ccc([C@@H]2[C@H]3C(=O)N(CC)C(=O)[C@H]3[C@]3(C(=O)OC)CCCN23)cc1OC (stereo partly drawn) 56.2 µM [inhibitor, partial curve], CCOC(=O)c1sc2nc(CSc3ccccc3)nc(NCCN(C)C)c2c1C 56.2 µM [inhibitor, partial curve], O=C(N/N=C/c1ccc([N+](=O)[O-])o1)C1CC1 89.1 µM [inhibitor, partial curve, poor fit], CC(=O)N1[C@H](Cc2ccccc2)C=C[C@]1(C)C(=O)NCc1ccccn1 89.1 µM [inhibitor, single point], c1ccc(-c2nc3ccccn3c2NC2CCCC2)nc1 63.1 µM [inhibitor, partial curve, poor fit], CC(C)CNC(=O)C1Nc2ccc(OC(F)(F)F)cc2C2C=CCC12 (stereo not drawn) 44.7 µM [inhibitor, partial curve], Cc1nn(-c2ccccc2)c2c1C1(C(=O)N(C(C)C)c3ccccc31)C(C#N)=C(N)O2 (stereo not drawn) 79.4 µM [inhibitor, single point], COc1ccc2[nH]c(=O)c(CN(C3CCCCC3)C(c3nnnn3Cc3ccco3)C(C)C)cc2c1 (stereo not drawn) 50.1 µM [inhibitor, partial curve], Cc1cc(C)n(CCC(=O)Nc2ccc(Cl)cc2)n1 56.2 µM [inhibitor, partial curve], Cc1c(C)n(Cc2ccccc2)c2ccc(C(=O)NCC(C)c3ccccc3)cc12 (stereo not drawn) 8.91 µM [inhibitor, full curve, poor fit], CN(CC1CCOCC1)C(=O)CC1C(=O)NCCN1Cc1ccccc1F (stereo not drawn) 25.1 µM [inhibitor, partial curve]

Activity change, negative = inhibition, inactive:
OCCOCCOc1cccc2[nH]ccc12 -10.3%, N#CCCn1cc(C(=O)CN2C(=O)C(=O)N(C3CCCC3)C2=O)c2ccccc21 -14.6%, COc1ccc(-c2[nH]ncc2CN2CCCC(C(=O)c3cccc(OC)c3)C2)cc1 (stereo not drawn) -25.9%, COC(=O)CN1C(=O)CSc2ccc(S(=O)(=O)Nc3ccc(F)c(Cl)c3)cc21 -7.59%, O=C(Nc1ccc(O)c2c(=O)cc(-c3ccccc3Cl)oc12)c1ccccc1Cl -25.4%, CSc1ncc(C(=O)Nc2cc(C)cc(C)c2)c(-c2ccccc2)n1 -21.5%, O=C(Cn1cc(S(=O)(=O)Cc2cccc(Cl)c2)c2ccccc21)Nc1ccccc1C(F)(F)F -1.32%, O=C(Nc1ccc(N2CCN(C(=O)c3ccco3)CC2)cc1)c1ccc(Br)cc1 -9.45%, Cc1ccc(CCNC(=O)Cn2ccc3cc(S(=O)(=O)N4CCCC4)ccc32)cc1 -8.97%, Cc1ccc(S(=O)(=O)N2CC(O)CC2C(=O)OCC(=O)Nc2ccc([N+](=O)[O-])cc2C(F)(F)F)cc1C (stereo not drawn) -21.2%, CC(C)(C)c1ccc(NNC(=O)C2CCC2)cc1 -5.52%, CCOC(=O)CNC(=O)c1cc2c(=O)oc3ccccc3c2s1 13.3%, O=C(CNCc1ccccc1)NC1C2CC3CC(C2)CC1C3 (stereo not drawn) -7.59%, CN1CCc2[nH]c3ccc(C(=O)NN)cc3c2C1 -24.6%, CC(C)(C)c1nn(-c2ccccc2)c2[nH]c(=O)c(C=O)cc12 0%
